Whole data set: some 33,000 sequences, median “E-score (-0.5 to 0.5)” near -0.012, cut for the highest 2% near 0.29. Some of the results follow.
Each sequence was assayed against T1, Ybr033w (UniProt P38073) (assay: PBM E-score (8-mer binding enrichment) (E-score (-0.5 to 0.5)); higher = stronger / more preferred TF binding; most listed sequences are background and not binding sites). Conditions: protein concentration: 200 nM; construct: GST-full length.
T1 sequence: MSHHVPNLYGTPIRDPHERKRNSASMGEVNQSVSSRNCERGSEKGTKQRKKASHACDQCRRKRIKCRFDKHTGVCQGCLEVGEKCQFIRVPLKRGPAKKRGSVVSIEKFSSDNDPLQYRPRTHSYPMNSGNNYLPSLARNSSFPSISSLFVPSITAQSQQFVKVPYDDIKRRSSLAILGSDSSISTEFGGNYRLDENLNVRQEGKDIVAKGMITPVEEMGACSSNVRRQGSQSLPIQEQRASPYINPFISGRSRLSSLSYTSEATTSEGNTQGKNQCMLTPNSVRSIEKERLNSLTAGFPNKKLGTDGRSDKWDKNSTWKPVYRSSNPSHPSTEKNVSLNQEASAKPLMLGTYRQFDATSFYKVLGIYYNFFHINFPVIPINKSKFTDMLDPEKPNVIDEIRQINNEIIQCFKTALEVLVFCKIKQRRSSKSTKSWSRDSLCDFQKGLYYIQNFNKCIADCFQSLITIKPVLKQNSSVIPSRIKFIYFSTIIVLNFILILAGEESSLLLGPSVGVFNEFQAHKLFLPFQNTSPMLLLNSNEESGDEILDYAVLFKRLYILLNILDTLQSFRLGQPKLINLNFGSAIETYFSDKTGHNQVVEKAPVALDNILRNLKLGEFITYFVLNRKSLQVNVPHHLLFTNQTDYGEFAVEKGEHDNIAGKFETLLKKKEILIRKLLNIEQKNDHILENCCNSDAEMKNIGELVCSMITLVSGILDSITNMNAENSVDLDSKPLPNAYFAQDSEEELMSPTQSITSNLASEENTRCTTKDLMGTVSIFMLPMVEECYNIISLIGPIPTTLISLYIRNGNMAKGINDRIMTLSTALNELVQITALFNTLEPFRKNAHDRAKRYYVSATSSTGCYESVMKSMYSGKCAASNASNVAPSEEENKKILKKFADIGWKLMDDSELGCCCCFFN
Summary of the method: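 Universal all-10-mer Agilent arrays, double-stranded by primer extension on fresh or once-stripped slides, were probed with about 100-200 nM GST-tagged yeast transcription factors made by PURExpress. Fluorescent anti-GST detected bound protein, and masliner normalised the scans. E-scores from the Universal PBM Analysis Suite were given to each ungapped eight-base word pooled with its reverse complement.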

Row | Sequence | PBM E-score
1 | AATTCAAG | 0.233
2 | ACTTGGGA | -0.0817
3 | CGGTGGTC | -0.0278
4 | AGCCAGGA | -0.00989
5 | ACATTCAT | 0.235
6 | CACTCTAC | 0.0644
7 | ACCAGCAG | -0.15
8 | TCAAACCA | 0.186
9 | ATCGGGCA | -0.215
10 | TGCAACAA | 0.157
11 | GGCTCACC | -0.218
12 | GTATTAGA | 0.228
13 | GCGGAGCC | -0.304
14 | ACCGATGC | -0.116
15 | CAAGAGCG | -0.115
16 | GTAGACAC | 0.0538
17 | GAATGCGC | 0.0787
18 | CGGTGTGA | 0.107
19 | CCTGGGGA | -0.323
20 | ATGACTAA | 0.0188
21 | ACAGGCAA | 0.0445
22 | GACGGGTA | -0.212
23 | CATAGGGC | -0.155
24 | ATTGCCAA | -0.00029
25 | ATATGATC | 0.268

Row | Sequence | PBM E-score
26 | AGAGCGGC | -0.104
27 | GCCAAAGA | 0.00251
28 | GTGAAGCA | -0.00164
29 | AATGTGGA | 0.0893
30 | CATTCAGG | -0.0502
31 | GGGCCGAC | -0.196
32 | CCCATTAC | -0.17
33 | GCTGCTAC | -0.175
34 | GATACTGA | 0.0886
35 | CGTTTACA | -0.0549
36 | CCATCTAG | -0.0741
37 | CTTGCTAA | 0.0713
38 | ACTCGGCG | -0.0867
39 | ACCAAGAT | 0.197
40 | AGTGAAGG | -0.0941
41 | ACCGTATG | -0.0854
42 | CCACCAAA | -0.0586
43 | CCATGGGA | -0.0942
44 | AGCCCCAT | -0.224
45 | CTTCCGTC | 0.018
46 | CCTGGGTA | -0.17
47 | CATGAGAA | 0.00513
48 | AAAACCCT | -0.0706
49 | CCATTCAC | -0.108
50 | CCGGGGCA | -0.219

Row | Sequence | PBM E-score
51 | AAGAAAGG | 0.0767
52 | AGCTTCAG | 0.0406
53 | AGAAAATG | 0.13
54 | GCTGAGCC | -0.322
55 | CATGCGAG | -0.217
56 | ATCGAAGC | -0.0452
57 | ACAGGGAT | 0.0777
58 | ACCAACCA | -0.0191
59 | CGTCGTTC | 0.193
60 | CAGGGACC | -0.383
61 | CAGGTAAA | 0.233
62 | CACACCGA | 0.0972
63 | ACATAACT | 0.113
64 | GGTTGACA | 0.0779
65 | AGTTTGGG | 0.165
66 | AGCGGATC | 0.023
67 | AGCAAAAC | 0.0585
68 | AATGATGC | 0.162
69 | AATCAGTG | -0.0807
70 | CCGTTAAG | -0.121
71 | TGCAATAA | 0.167
72 | GATCAGCC | -0.0555
73 | ATTGACGG | -0.0845
74 | CGGTAGAA | -0.294
75 | AACGTGAC | -0.0568

Row | Sequence | PBM E-score
76 | CGGATTGA | 0.0349
77 | ACCCGCTA | -0.0201
78 | CGACACCC | -0.275
79 | ATTCTGTA | 0.103
80 | AGAAGTAA | 0.176
81 | AAATTATG | 0.227
82 | CATGTCCC | -0.153
83 | CGCATCTA | 0.201
84 | CTGCCATC | -0.113
85 | AAGTGGTC | 0.0337
86 | GAGGTACC | -0.157
87 | CAGTTTAA | -0.00782
88 | ACCTGGGA | -0.00837
89 | ACATTAGT | 0.105
90 | GTAAGCAA | 0.112
91 | CCGCAGTA | -0.00848
92 | AATACTTA | 0.251
93 | TACGAGGA | 0.0233
94 | ATACTTAA | 0.254
95 | TAATTCGA | 0.159
96 | AATGCAAC | 0.0176
97 | CTTTTGGC | -0.0369
98 | ATTTCAGC | -0.0455
99 | CTGACATC | -0.0781
100 | GGCGCGCA | -0.0682

Row | Sequence | PBM E-score
101 | TCCTGCGA | -0.0113
102 | ATGCTTTA | -0.0011
103 | CGGAGGTA | -0.146
104 | AGCTTTTC | 0.0408
105 | AGAGGTCG | -0.128
106 | CTCGAGTA | -0.0178
107 | AGGTTACG | -0.03
108 | CTTGTAAC | 0.143
109 | ACCACCAG | 0.0382
110 | GCCCTTAC | -0.285
111 | CTATAAGA | 0.0738
112 | GCGGGCAC | -0.0586
113 | ACTCGAGA | 0.0536
114 | CAGGGGCC | -0.228
115 | GTCATCGA | 0.0247
116 | TCCGTCGA | 0.0166
117 | CTCCTCAG | -0.178
118 | CTTCCAGC | -0.208
119 | TCGAAACA | 0.222
120 | CTCCTATA | -0.117
121 | ATCATATA | 0.269
122 | CCACAATC | 0.00169
123 | AGTCCGGC | -0.17
124 | TAAGGACA | -0.0159
125 | GCACTTAC | 0.0348

Row | Sequence | PBM E-score
126 | GAACTGAA | 0.0824
127 | CGTGCCTC | -0.0375
128 | CAGGAAGA | 0.169
129 | ACGTCTGA | 0.0997
130 | ACATAGAG | -0.116
131 | ACGGACCA | 0.159
132 | CTGACACC | -0.0832
133 | ACAATGCT | 0.182
134 | TGGATTAA | 0.38
135 | GGCTTGCA | -0.0086
136 | CGCTGACA | -0.167
137 | AGCCGAAA | 0.152
138 | CTCCCGTA | -0.218
139 | GTGCTAAC | 0.0153
140 | AATTTACC | 0.103
141 | AATGACTA | -0.0342
142 | AAGATGAT | 0.108
143 | CGACCGCA | -0.0166
144 | AGCTGTAG | 0.0316
145 | ATGTGGGG | -0.246
146 | GGTAGAAC | -0.0448
147 | GCCCCCAA | -0.251
148 | ACATTGGT | 0.13
149 | GAGGTGGC | -0.207
150 | ACTATAAG | 0.169

Row | Sequence | PBM E-score
151 | GATTCATA | 0.0364
152 | CAAAGAGG | -0.0846
153 | CTAGGAGC | -0.284
154 | CAATAGCC | -0.0498
155 | AATCGACT | 0.0161
156 | CCTAGCAA | 0.0864
157 | ACGTGACT | -0.145
158 | TGGTTCAA | 0.16
159 | CCTCGCTC | 0.0674
160 | GACACGAC | -0.0129
161 | AATCGTAG | 0.131
162 | CGTCCCAC | -0.127
163 | ACACGCGC | -0.0704
164 | CTAAGGCA | -0.099
165 | GAGTTGCA | -0.0795
166 | CTCGAATA | -0.144
167 | ATGCACCG | 0.0243
168 | AAAGAATT | 0.0904
169 | CCGCACAA | 0.0236
170 | GTTGACAA | 0.167
171 | CTGCCCAA | -0.138
172 | CACAGGTG | -0.0211
